Among all 2,800 compounds or so, fewer than 10 were called active. Calls come from the whole dose curve; as a rule, active = well fitted curve in the direction sought with a large enough effect; inconclusive = small, poorly fitted or top-dose-only effect, or another doubt; inactive = no such curve, though single readings can be large or run the other way. The list shows a part of the results.
Each compound was assayed against Metallo-beta-lactamase type 2 (Klebsiella pneumoniae) (UniProt C7C422) (assay: qHTS to identify inhibitors of the New Delhi Metallo-beta-lactamase (NDM): Meropenem screen against the machine-based learning selections.). Conditions: Purified NDM-1, meropenem hydrolysis, absorbance 300 nm; at 38.4 µM (top of the series) unless noted.
Chain of UniProt C7C422 (C7C422 whole entry, looked up): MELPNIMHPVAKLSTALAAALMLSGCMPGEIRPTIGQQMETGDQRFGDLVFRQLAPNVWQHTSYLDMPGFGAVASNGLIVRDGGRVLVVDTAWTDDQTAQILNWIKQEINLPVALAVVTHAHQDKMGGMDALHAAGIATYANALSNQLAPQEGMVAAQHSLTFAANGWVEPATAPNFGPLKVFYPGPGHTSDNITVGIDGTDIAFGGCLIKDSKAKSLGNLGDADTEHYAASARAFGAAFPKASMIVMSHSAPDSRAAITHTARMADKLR
In short: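 Hydrolysis by 2 nM NDM-1 was followed by absorbance after >30 min compound preincubation in HEPES pH 7.0 buffer with 1 uM Zn2SO4. For nitrocefin (16.7 uM, 15 min, 485 nm) and meropenem (50 uM, 30 min, 300 nm), each substrate ran on separate plates.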
For O=C(c1ccco1)N1CCN(Cc2ccc3c(c2)CCO3)CC(O)C1 (stereo not given), the activity change, negative = inhibition was inactive: -0.439%. O=C(Nc1cccc2ccccc12)O[C@@H]1CO[C@H]2[C@@H]1OC[C@@H]2n1nnnc1-c1ccc(-c2ccccc2)cc1 was tested, and the activity change, negative = inhibition was inactive: -0.841%. O=C(NCCc1csc(-c2cccnc2)n1)C1NCCc2[nH]cnc21 (stereo not given) was tested, and the activity change, negative = inhibition was inactive: 41.8%. For CC1=C[C@@H](CNC(=O)CCCC(=O)O)[C@H](C(C)C)C[C@H]1Cc1nc2ccc(F)cc2[nH]1, the activity change, negative = inhibition was inactive: 2.35% [at 57.5 µM]. For O=C(NC1CCN(c2cc(-c3ccc(Cl)cc3)[nH]n2)C1)c1ccncc1 (stereo not given), the activity change, negative = inhibition was inactive: -0.646%. With CN(C)Cc1cn([C@H]2CO[C@H]3[C@@H]2OC[C@H]3OC(=O)Nc2ccc(C(C)(C)C)cc2)nn1 the activity change, negative = inhibition was inactive: -1.48% [at 57.5 µM]. For CNC(=O)C1CCN(C(=O)N2CC3CC(C2)[C@H]2CCCC(=O)N2C3)CC1 (stereo not given in full), the activity change, negative = inhibition was inactive: 0.794%. O=C(NC[C@H]1COCc2nc3cc(F)ccc3n21)C1CC1 was tested, and the activity change, negative = inhibition was inactive: 1.94% [at 76.7 µM]. For Cc1cccc(CC(=O)N2CCC[C@H]2c2nc(-c3ccccc3)no2)c1, the activity change, negative = inhibition was inactive: 0.638%. Cc1cccc(OCCc2noc(C3CCCNC3)n2)c1 (stereo not given) was tested, and the activity change, negative = inhibition was inactive: -1.31%. For COc1ccc(S(=O)(=O)N2CCc3c(C(=O)NC4CC4)cccc32)cc1, the activity change, negative = inhibition was inactive: -2.8%. In the case of O=C(C[C@@H]1CCNC[C@@H]1Cc1cc(-c2ccc(F)cc2)on1)NCc1ccccc1, the activity change, negative = inhibition is reported as inactive: -1.28% [at 57.5 µM]. With CS(=O)(=O)N1CCC(C2CCN(C(=O)Cc3cccc(F)c3)C2)CC1 (stereo not given) the activity change, negative = inhibition was inactive: 0.205%. For O=C(O)c1ccc(CN2CC[C@@H](c3ccc4c(c3)OCO4)[C@H](O)C2)cc1, the activity change, negative = inhibition was inactive: 1.1%. In the case of CC(NC(=O)c1ccc(C(C)(C)C)cc1)C(=O)N1CCN(c2ccccn2)CC1 (stereo not given), the activity change, negative = inhibition is reported as inactive: -2.8%. In the case of CN1CCCC2(C1)CN(Cc1cccnc1)c1ccc(C(=O)Nc3ccccc3)cc12 (stereo not given), the activity change, negative = inhibition is reported as inactive: 7.09% [at 57.5 µM]. In the case of Cc1cc(C(=O)N[C@H]2[C@H](O)[C@H](O)C[C@@H]2c2cccnc2)no1, the activity change, negative = inhibition is reported as inactive: 0.945% [at 57.5 µM]. In the case of Cc1cc(-c2cc3c(cn2)CN(Cc2ccccc2O)CCN3)ccn1, the activity change, negative = inhibition is reported as inactive: -0.469% [at 57.5 µM]. In the case of NC(=O)c1ccc(NC(=O)C[C@H]2NC(=O)c3ccccc3NC2=O)cc1, the activity change, negative = inhibition is reported as inactive: 3.35%. CSc1ccc(-c2ccc3c(c2)C(=O)N2CCN(C(=O)CCC(=O)O)C[C@H]2C(=O)N3)cc1 was tested, and the activity change, negative = inhibition was inactive: 11.9%. CSc1cccc(NC(=O)N[C@H]2CCN3C(=O)[C@H](CC4CCCCC4)NC(=O)[C@@H]3C2)c1 was tested, and the activity change, negative = inhibition was inactive: 2.02%. With Cc1noc(C)c1CCC(=O)NC(c1cnn(C)c1)C1CC(O)C1 (stereo not given) the activity change, negative = inhibition was inactive: -3.01%. In the case of CCCN1C(=O)Cc2ccccc2C1C(=O)NCc1cccc(F)c1 (stereo not given), the activity change, negative = inhibition is reported as inactive: 0.712%. With CNC(=O)[C@@H](C1CC1)N1CCC[C@H]1C(=O)NC1CC1 the activity change, negative = inhibition was inactive: -0.0114% [at 76.7 µM]. CCOC(=O)N1CCC(N2CCCCC(N)C2)CC1 (stereo not given) was tested, and the activity change, negative = inhibition was inactive: 28.6%. OC1(c2csc(CN3CCN(c4ccccn4)CC3)n2)CCN(CC2CCCCC2)CC1 was tested, and the activity change, negative = inhibition was inactive: 0.0529%. In the case of CN(C)CCOCC1(C)COc2ccc(C(=O)Nc3ccc4[nH]ccc4c3)cc2N1 (stereo not given), the activity change, negative = inhibition is reported as inactive: 4.2% [at 57.5 µM]. With Fc1ccc(-c2cc(CC3(NC4CCCCC4)COC3)no2)cc1 the activity change, negative = inhibition was inactive: -1.11% [at 57.5 µM]. For COCC(=O)NC[C@@H]1C=C(C)[C@H](CC(=O)Nc2ccccn2)C[C@H]1C(C)C, the activity change, negative = inhibition was inactive: 2.59% [at 57.5 µM]. Cc1noc2c(-c3cccc(CO)c3)cc(-c3cccs3)nc12 was tested, and the activity change, negative = inhibition was inactive: 6.84% [at 57.5 µM]. For O=C(CCc1ccc(O)cc1)N1CCN(Cc2ccccc2)CC(O)C1 (stereo not given), the activity change, negative = inhibition was inactive: -0.0853%. With O=C(Cc1c[nH]c2ncc(-c3cccc(F)c3)cc12)NCc1cccnc1 the activity change, negative = inhibition was inactive: 4.52% [at 57.5 µM]. With CS(=O)(=O)c1ccc(CN2CCC[C@H]2c2nc(-c3ccnc(N4CCC(C(N)=O)CC4)c3)no2)cc1 the activity change, negative = inhibition was inactive: 2.02%. In the case of CCNC(=O)[C@@H]1CCCN1[C@@H](C(=O)NC)c1ccccc1F, the activity change, negative = inhibition is reported as inactive: 54.3% [at 57.5 µM]. For Cc1ccc(CCNC(=O)Cn2nc(C)n(CCc3ccccc3)c2=O)o1, the activity change, negative = inhibition was inactive: 0.0117%. For Cc1oc(C(O)c2cccc(O)c2)nc1C(=O)Nc1ccc(N2CCOCC2)cc1 (stereo not given), the activity change, negative = inhibition was inactive: 15.8% [at 57.5 µM]. In the case of O=C(COc1ccccc1)N1CC[C@H]2CC(=O)N(c3ccccc3)CC[C@H]2C1, the activity change, negative = inhibition is reported as inactive: -1.14% [at 57.5 µM]. For COc1cccc(N2C(=O)N[C@@H]3CCN(S(=O)(=O)c4ccccc4)[C@@H]3C2=O)c1, the activity change, negative = inhibition was inactive: 0.866% [at 57.5 µM]. O=C(O)[C@@H]1CN(C(=O)c2ccc(=O)[nH]c2)C[C@H]1c1ccc2c(c1)OCO2 was tested, and the activity change, negative = inhibition was inactive: 4.89%. With Cc1ccc(-c2nc(CNC(=O)C3CCNC3)[nH]c2-c2ccccn2)cc1 (stereo not given) the activity change, negative = inhibition was inactive: 61%. CC(=O)NC1(C)CCN(Cc2cccc(-c3ccc4ccccc4c3)c2)C1 (stereo not given) was tested, and the activity change, negative = inhibition was inactive: 0.607% [at 57.5 µM]. For O=C(NCC(F)F)C1CN(c2ccccc2)C(=O)N1 (stereo not given), the activity change, negative = inhibition was inactive: -1.2% [at 57.5 µM]. In the case of CCCn1nc(C)c(-c2cc(C(=O)N3CCc4c(nc5cc(-c6ccccc6)[nH]n5c4=O)C3)[nH]n2)c1C, the activity change, negative = inhibition is reported as inactive: 1.03%. For CN(Cc1ccc(F)cc1)c1ccc2ncc(Nc3cccc(O)c3)n2n1, the activity change, negative = inhibition was inactive: 41.8% [at 57.5 µM]. Nc1nc(NCCNC(=O)c2ccccc2Cl)cc(C2CC(O)C2)n1 (stereo not given) was tested, and the activity change, negative = inhibition was inactive: -0.118%. O=c1n(-c2ccc(C(F)(F)F)cc2)nc2n1CCN(Cc1ccc(C(F)(F)F)cc1)C2 was tested, and the activity change, negative = inhibition was inactive: 43.6%. NC1CCCCN(C(=O)c2ccc3n[nH]nc3c2)C1 (stereo not given) was tested, and the activity change, negative = inhibition was inactive: 3.69%. CCCCN1C(=O)[C@@H]2C[C@@H](O)CN2C2(CN(CC3CC3)C2)C1=O was tested, and the activity change, negative = inhibition was inactive: 1.28% [at 57.5 µM]. For CC(C)n1cnnc1-c1nn(C)c2c1CN(C(=O)Cc1c[nH]c3ccccc13)CC2, the activity change, negative = inhibition was inactive: 0.268%. With CSc1ccc(C(C(=O)O)N2CCN(Cc3csc(C)n3)CC2)cc1 (stereo not given) the activity change, negative = inhibition was inactive: 37%.
Note: % of control where 0% means no effect.
